# Structures can show the parent of a compound that is named as a salt. ± gives the standard deviation of the averaged measurements. The full ranking holds about 3,100 compounds; the median of “mean cytoplasmic OPP incorporation (global translation) relative to DMSO” is about 100, and the lowest 2% start at about 56. This is one part of the list.
# Test system: U2OS
# Test: mean cytoplasmic OPP incorporation (global translation) relative to DMSO (% of DMSO); higher = more protein synthesis
# Conditions: 10 µM; 24 h
# Protocol: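 Primary image-based screen in U2OS cells: compounds at 10 uM for 24 h, then a 1 h o-propargyl-puromycin (OPP) pulse, click labelling, and high-throughput microscopy. Mean cytoplasmic OPP intensity and nuclei count were normalised to DMSO wells within each plate (DMSO = 100) and averaged over triplicate plates.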
row,SMILES,mean cytoplasmic OPP incorporation
1,C[N+]1(C)CCCC(OC(=O)C(O)(c2ccccc2)c2ccccc2)C1 (configuration not stated) [Mepenzolate bromide],95.8
2,COc1cc(N)c(Cl)cc1C(=O)NC1CN2CCC1CC2 (configuration not stated) [Zacopride hydrochloride],104
3,c1ccc2sc(C3(N4CCCCC4)CCCCC3)cc2c1 [BTCP maleate],109
4,C[C@@H]1CN([C@H]2CC[C@](C#N)(c3ccc(F)cc3)CC2)CC[C@]1(C(=O)O)c1ccccc1 [Levocabastine hydrochloride],98.1
5,C(=C\c1ccccc1)/CN1CCN(CCOC(c2ccccc2)c2ccccc2)CC1,98.5
6,C=CCC1(CC(C)C)C(=O)NC(=O)NC1=O [Butalbital],99.9
7,O=C1C2CCN(CC2)C1(CO)CO,97.1
8,O=C(CCCN1CCC(n2c(=O)[nH]c3ccccc32)CC1)c1ccc(F)cc1 [Benperidol],110
9,"C=CCN1CC[C@]2(C)c3cc(O)ccc3C[C@H]1C2C (single isomer, unassigned; (+))",105
10,Cc1sc2c(c1C)C(c1ccc(Cl)cc1)=N[C@@H](CC(=O)OC(C)(C)C)c1nnc(C)n1-2,103
11,COc1ccc(OC)c(C(O)C(C)N)c1 (configuration not stated) [Methoxamine hydrochloride],97.2
12,Ic1cncc(OC[C@@H]2CCN2)c1,97.5
13,CCOc1cncc(/C=C/CCNC)c1 [TC 2559 difumarate],97.5
14,CCC(=O)O[C@H]1CC[C@H]2[C@@H]3CCC4=CC(=O)CC[C@]4(C)[C@H]3CC[C@]12C [Testosterone propionate],98.3
15,CC1OC(OC2/C=C/C=C/C=C/C=C/CC/C=C/C=C/[C@H](C)[C@@H](O)[C@@H](C)[C@H](C)OC(=O)CC(O)CC(O)CC(O)CCC(O)C(O)C[C@]3(O)CC(O)C(C(=O)O)C(C2)O3)C(O)C(N)C1O (some centres not stated) [Nystatine],106
16,CN1CCN(c2ccc3ccccc3n2)CC1 [N-Methylquipazine dimaleate],97.4
17,NCCCNCCSP(=O)(O)O [Amifostine],90.7
18,"Clc1ccc(N2CCN(Cc3c[nH]c4ncccc34)CC2)cc1 [L-745,870 trihydrochloride]",104
19,O=C(CCCN1CCC2(CC1)C(=O)N(Cc1cccc(F)c1)CN2c1ccccc1)c1ccc(F)cc1 [3'-Fluorobenzylspiperone maleate],122
20,CCN(CC)C(=O)c1ccc(C2=CC3(CCNCC3)Oc3cccc(O)c32)cc1,110
21,NCCc1c[nH]c2ccc(C(N)=O)cc12 [5-Carboxamidotryptamine maleate],99.2
22,O=c1[nH]c2ccc(Cl)cc2c(N[C@@H]2CN3CCC2CC3)c1-c1nc2ccccc2[nH]1,56.6 ± 4
23,CC1(C)[C@@H](O)C[C@H]2[C@](C)(O)[C@@H]3CC[C@@H]4[C@@H](O)[C@@]3(C[C@@H](O)[C@@]21O)C[C@@]4(C)O [Grayanotoxin III],102

row,SMILES,mean cytoplasmic OPP incorporation
1,FC(F)(F)c1cccc(C2=CCN(CCc3ccc4ccccc4c3)CC2)c1 [Xaliproden hydrochloride],102
2,O=c1ccc2[nH]cc(C3=CCNCC3)c2[nH]1,98.3
3,O=C(O)/C=C/CO [trans-4-Hydroxycrotonic acid],105
4,Cc1cc2c(C(C)C)c(O)c(O)c(C=O)c2c(O)c1-c1c(C)cc2c(C(C)C)c(O)c(O)c(C=O)c2c1O [Gossypol],91.6 ± 2.5
5,CC(C)(OO)c1ccccc1 [Cumene hydroperoxide],98.2
6,O=c1[nH]c2ccccc2n1C1CCN(CCCC(c2ccc(F)cc2)c2ccc(F)cc2)CC1 [Pimozide],111 ± 3.8
7,CC1=C2C[C@H]3[C@@H](CC=C4C[C@@H](O)CC[C@@]43C)[C@@H]2CC[C@]12O[C@@H]1C[C@H](C)CN[C@H]1[C@H]2C [Cyclopamine],101
8,CC(=O)NCCc1c[nH]c2ccccc12 [N-Acetyltryptamine],101
9,CCN1CC2(OC(=O)c3ccccc3NC(C)=O)CCC(OC)C34C1C(CC23)C1(O)CC(OC)C2CC4C1(O)C2OC (configuration not stated) [Lappaconite HBr],109
10,N[C@H](C(=O)O)c1cc(O)no1 [Ibotenic acid],97.4
11,C[C@]12CC[C@@H](O)C[C@H]1CC[C@@H]1[C@@H]2CC[C@]2(C)C(=O)CC[C@@H]12 [3-alpha-Hydroxy-5-beta-androstan-17-one],89.8
12,C#CCN(C)[C@H](C)Cc1ccccc1 [Selegiline hydrochloride],102
13,COc1cc(C(=O)N2CC[C@@H](O)[C@@H](N)C2)cc2nc(-c3cc4ccccc4n3CC3CC3)n(C)c12,110
14,CN1CCN(c2nc3ccccc3nc2Cl)CC1,95.9
15,CN(C)C(=O)Oc1ccc[n+](C)c1 [Pyridostigmine iodide],104
16,C[C@@H]1O[C@@H](O[C@@H]2C=C3CC[C@@H]4[C@H](CC[C@]5(C)[C@@H](c6ccc(=O)oc6)CC[C@]45O)[C@@]3(C)CC2)[C@H](O)[C@H](O)[C@H]1O [Proscillaridin A],17.5
17,CNC(=O)Oc1ccc2c(c1)[C@]1(C)CCN(C)[C@@H]1N2C [Eserine hemisulfate salt],101
18,Cc1onc(O)c1C[C@H](N)C(=O)O,94.3
19,O=C(O)CCC(CP(=O)(O)O)C(=O)O (configuration not stated) [PMPA (NAALADase inhibitor)],105
20,CC(C)(C)OC(=O)c1ncn2c1[C@@H]1CCCN1C(=O)c1c(Br)cccc1-2 [Bretazenil],104
21,CN(C)C(=O)Oc1cccc([N+](C)(C)C)c1 [Neostigmine bromide],102
22,CN1[C@@H]2CC[C@H]1CC(OC(=O)N1Cc3ccccc3NC1=O)C2 (some centres not stated) [DAU 5884 hydrochloride],101
23,COc1ccc(C(CN(C)C)C2(O)CCCCC2)cc1 (configuration not stated) [Venlafaxine],101

row,SMILES,mean cytoplasmic OPP incorporation
1,CCc1c(C(=O)C(N)=O)c2c(OCC(=O)O)cccc2n1Cc1ccccc1,100
2,"CC(=O)[C@H]1CC[C@H]2[C@@H]3CC[C@@H]4CC(=O)CC[C@]4(C)[C@H]3CC[C@]12C [5b-Pregnan-3,20-dione]",98.1
3,CCNCC(O)c1cccc(O)c1 (configuration not stated) [Etilefrine hydrochloride],104
4,"c1ccc(CC(c2ccccc2)N2CCCCC2)cc1 (racemic) [(±)-1-(1,2-Diphenylethyl)piperidine maleate]",109
5,COc1ccc2[nH]cc(C3=CCNCC3)c2c1,101
6,CCOC(=O)c1ncc2[nH]c3ccc(OCc4ccccc4)cc3c2c1COC,106
7,CC(C)(N)Cc1ccccc1 [Phentermine hydrochloride],85.4
8,NP(N)(=O)NC(=O)c1ccc(F)cc1 [Flurofamide],99.6
9,Clc1cccc(SC2CCNCC2)n1 [Anpirtoline hydrochloride],115
10,CC(C)C[C@H]1C(=O)N2CCC[C@H]2[C@]2(O)O[C@](NC(=O)[C@@H]3C=C4c5cccc6[nH]c(Br)c(c56)C[C@H]4N(C)C3)(C(C)C)C(=O)N12 [Bromocriptine mesylate],107
11,CC(C)C[C@H]1C(=O)N2CCC[C@H]2[C@]2(O)O[C@](NC(=O)[C@@H]3C=C4c5cccc6[nH]c(Br)c(c56)C[C@H]4N(C)C3)(C(C)C)C(=O)N12 [Bromocryptine mesylate],107
12,c1ccc(CCCN2CCN(CCOC(c3ccccc3)c3ccccc3)CC2)cc1,98.2
13,CN1[C@@H]2CC[C@H]1C[C@@H](OC(=O)C(CO)c1ccccc1)C2 (some centres not stated) [Atropine],108
14,CN1[C@@H]2CC[C@H]1C[C@@H](OC(=O)C(CO)c1ccccc1)C2 (some centres not stated) [Atropine sulfate monohydrate],96.9
15,CC[C@@H]1[C@@H](C)O[C@@](O)([C@@H](C)[C@H](O)[C@H](C)[C@H]2OC(=O)/C=C/C=C/[C@H](C)[C@@H]([C@@H](C)[C@@H](O)[C@H](C)[C@@]3(O)C[C@@H](O[C@H]4C[C@H](O)[C@H](O)[C@H](C)O4)[C@H](CC)[C@@H](C)O3)OC(=O)/C=C/C=C/[C@@H]2C)C[C@H]1O[C@H]1C[C@H](O)[C@H](O)[C@H](C)O1 [Azalomycin-B],104
16,CC(C)NCC(O)c1ccc(N)c(C#N)c1 (configuration not stated) [Cimaterol],101
17,CCC1=C[C@H]2CN3CCc4c([nH]c5ccccc45)[C@](C(=O)OC)(C2)[C@H]13 [Catharanthine],106
18,O=C(Cc1ccc(Cl)c(Cl)c1)N1CCCCC1CN1CCCC1 (configuration not stated),104
19,C=C(C)CN1CC[C@@]23c4c5ccc(O)c4O[C@H]2c2[nH]c4ccccc4c2C[C@]3(O)C1C5 [SDM25N hydrochloride],95.8
20,c1ccc(C2CC2)c(OCC2=NCCN2)c1 [Cirazoline hydrochloride],101
21,CNC(C)(C)Cc1ccccc1 [Mephentermine hemisulfate],99.4
